We go through 22 molecules from paper PMC12136788.

This is one part of the list.

The chains are these.
B1: chr4:125449804:125449905:+|CDS|ENSG00000196159|msi1|FALSE|unique (ssRNA)
RNA: GGGAGUUCUACAGUCCGACGAUCAAACAGAUCUUAAAAUACCAAAAUGUCACUGGCUUCAGUAAUGUGAAUAUCAACAGGCAUAGUUUUAUAGUGACAUCUUCAGAUCGAGGUAAACCUUCCUUAAUUAGUGAGACAACAGUUCAACAGAGGAUUGAGCAUCA
B2: chrX:72139229:72139330:+|CDS|ENSG00000204131|unk|FALSE|unique (ssRNA)
RNA: GGGAGUUCUACAGUCCGACGAUCUCCCUUAGUGCCCAGCAAGAGGCCCAGCACAGAAGGCAGAGGUCCAAGAGUAUCUCACUUAGGAAGGCCAAAAAGAAGCCUUCCCCACCCACACGCAGUGUCUCACUGGUCAAAGAUGAGCAACAGAGGAUUGAGCAUCA
B3: chrX:48915045:48915146:-|CDS|ENSG00000102096|unk|FALSE|unique (ssRNA)
RNA: GGGAGUUCUACAGUCCGACGAUCCCAGCACUGCCAUUCCCGUGGAGUUGUCCAUCGUGACAUCAAGGAUGAGAACAUCCUGAUAGACCUACGCCGUGGCUGUGCCAAACUCAUUGAUUUUGGUUCUGGUGCCCUGCUUCAUGACAACAGAGGAUUGAGCAUCA
B4: chr6:98868534:98874277:-|three_prime_utr|ENSG00000112234|control|control|control (ssRNA)
RNA: GGGAGUUCUACAGUCCGACGAUCAUUAAAAUUAAUGUGCUUUGUUGGGGUUUAAUUUUGGGAUUGGUUUUGGGUUUUGUUUUUAGUUGUUUUAAUGGUAAGAAUUAAGACAUUUGUAGAUUUUAAAGAAAAAUAUGAAAUUGUCAACAGAGGAUUGAGCAUCA
B5: ENSG00000071553:stop:overlap|stop_codon|ENSG00000071553|stop_codon|NA|stop_codon (ssRNA)
RNA: GGGAGUUCUACAGUCCGACGAUCCCCCCCAUGACACUGACGCCCAUUCCCCAAGGGAAGCUUCAGUGACCUUGUCCCAACUGUAGGGAGGUGUGGGUCGUCUCAUGGGAAGGCCUGUAGUAAACGCUUCAGUGGGCAUGGCGACAACAGAGGAUUGAGCAUCA
B6: chr19:7961171:7961272:-|3pUTR|ENSG00000066044|msi1|total|mutant (ssRNA)
RNA: GGGAGUUCUACAGUCCGACGAUCGGCGGGAUUCCCGCUUCUGAAACUCCCCCUGGAGUCUCACUCCCACACAUGCCCACCGCCCGCAUUCAACAGAGAACUCUGUCUUAAGCUUCAACUGUGAAAAUGAUGACGGGCUUGCCGCAACAGAGGAUUGAGCAUCA
B7: ENSG00000198589:be:win_5951|CDS|ENSG00000198589|bound_else_gene|NA|bound_elsewhere_windowed (ssRNA)
RNA: GGGAGUUCUACAGUCCGACGAUCACUGGGAAGAUGACUUGCGGCGCCGGCGACGAUUUGUGCGUAACCCUCUAGGAUCGACACAUCCUGAAGCGACACUAAAAACAGCCGUGGAACAUGCCACAGAUGAAGAUAUCCUUGCUACAACAGAGGAUUGAGCAUCA
B8: chr17:44678858:44679043:-|CDS|ENSG00000180329|control|control|control (ssRNA)
RNA: GGGAGUUCUACAGUCCGACGAUCUCGGGAUGAAUCCCAAAGGAAGAAGGAACAGGACAAGCUGCAGAGGGAGAGAGACAAACUAGCCAAGCAGGAGCGCAAGGAAAAGGAAAAAAAAAGGACACAGAGAGGGGAGCGAAAGCGCAACAGAGGAUUGAGCAUCA
B9: chr1:113797602:113797710:-|CDS|ENSG00000081019|unk|total|mutant (ssRNA)
RNA: GGGAGUUCUACAGUCCGACGAUCUUUAUGACUCACCAGGAACAUUCUAUUCGCCGAAAUUUCUUAAAAACAGGUACUAAAUUCCGCAACUUUAUUCAUGAGGAACACCAGUCCAAUGGUGGUGCUCUUGUCCUUCAUGCUUACCAACAGAGGAUUGAGCAUCA
B10: chr11:214995:215097:+|3pUTR|ENSG00000177963|unk|total|mutant (ssRNA)
RNA: GGGAGUUCUACAGUCCGACGAUCCCUCCUUCCUACUGGUUCCGACUACACUUACAACAAGGAAAAUGCCCCUCGUGUGACCACCGAUUGAGAUUUAUACCACAUACCACACACCGCCACAGAAACAUCAUCUUGAAAUAAAGACAACAGAGGAUUGAGCAUCA
B11: chr2:96185838:96185916:-|3pUTR|ENSG00000084090|msi1_unk|FALSE|overlapping (ssRNA)
RNA: GGGAGUUCUACAGUCCGACGAUCUGGGAGACUAAUCCUUUUAGAUAGUAGCUUUUUGAUGCUCAAAACAUCACAUUUAAAUUUAGUUUAAAAAUUUUUUAACUUUUGUGUCAAAUAGGAGUUGAGGAAUUGAGCAGGAUUCUACAACAGAGGAUUGAGCAUCA
B12: chr19:22391518:22392981:-|CDS|ENSG00000197360|control|control|control (ssRNA)
RNA: GGGAGUUCUACAGUCCGACGAUCCAUAAGAGAAUUCAUGCUGGAGAGAAAUUCUACAAAUGUGAAGUAUGUAGCAAAGCCUUUAGCCGGUUCUCACACCUUACUACACAUAAGAGAAUUCAUACUGGAGAGAAGCCCUACAAACAACAGAGGAUUGAGCAUCA
B13: chr22:42060953:42061055:-|CDS|ENSG00000198951|unk|FALSE|unique (ssRNA)
RNA: GGGAGUUCUACAGUCCGACGAUCCCAGGAAAAAUCUCUCAUCGAAGUGUACAUGCGGCCUCUGUCCAACAAGGCUAGCGCCUUAGUCUUCUUCAGCUGCAGGACCGAUAUGCCUUAUCGCUACCACUCCUCCCUUGGCCAGCUCAACAGAGGAUUGAGCAUCA
B14: chr2:150470103:150470218:-|CDS|ENSG00000115963|unk|FALSE|unique (ssRNA)
RNA: GGGAGUUCUACAGUCCGACGAUCAUGGCCAAACAGAUUGGAGCAGCUACUUAUAUCGAAUGCUCAGCUUUACAGUCGGAAAAUAGCGUCAGAGACAUUUUUCACGUUGCCACCUUGGCAUGUGUAAAUAAGACAAAUAAAAACCAACAGAGGAUUGAGCAUCA
B15: chr8:74853834:74853946:+|3pUTR|ENSG00000137558|unk|FALSE|unique (ssRNA)
RNA: GGGAGUUCUACAGUCCGACGAUCAAGUGCUUUUUUUUUUCUGAAUUAAUUAGGUAUUGGUAAAAUAUAUUUUUAAAUUUAGUUAGCUUUAUAAACACAAUUAGAAUUACAAUUAAUUAACAGAGGUAUAAUUGUCUCACUUUCCAACAGAGGAUUGAGCAUCA
B16: ENSG00000186472:stop:overlap|stop_codon|ENSG00000186472|stop_codon|NA|stop_codon (ssRNA)
RNA: GGGAGUUCUACAGUCCGACGAUCUUUCUUGUAAAUGGAAAUUUUAUCAUGUGUAUAGAUUCUGUAGCAUGCUUUUCUUUAUUUAGUUUUACUUUAUUCCUUUAUUGUUCUGUUUCUUGAUUGUUUGCUUGAUUUGUUUGGUGUCAACAGAGGAUUGAGCAUCA
B17: chr10:97759570:97759671:+|3pUTR|ENSG00000155256|msi1|FALSE|unique (ssRNA)
RNA: GGGAGUUCUACAGUCCGACGAUCGACUGAGCGAGUGGACUUAGGGCUGGGCAGGCAGUAGCCACCAGAGGGCAGCAGCGAACUAGGCCAGGCCUGACUGGGGUCUGAAGAUCAGGGUCAGUGUGGCUGUGCCUGGGAAUUCCACAACAGAGGAUUGAGCAUCA
B18: chr19:57572896:57572997:-|CDS|ENSG00000083817|unk|FALSE|unique (ssRNA)
RNA: GGGAGUUCUACAGUCCGACGAUCCAUCGGAGAAUCCACACUGGAGAAAGGCCUUAUGUGUGUGGUCAGUGUGGGAAAUCAUUUAGCCAAAGAGCCACCCUCAUUAAACAUCACAGAGUUCACACUGGAGAAAGGCCUUACGAGCAACAGAGGAUUGAGCAUCA
B19: chr14:52864448:52864598:-|CDS|ENSG00000073712|unk|total|mutant (ssRNA)
RNA: GGGAGUUCUACAGUCCGACGAUCGAUGGCAGCCUGCAGAUCCGCCUCCAAAGGCAAGACCAUGGCGGACAGUUCUUACAACUCCGAAGUUCAGAAUAUUCUUUCCUUUCUGAAGAUGCAGCAUUUAAACCCAGAUCCUCAGUUCAACAGAGGAUUGAGCAUCA
B20: chr3:113720845:113720875:-|3pUTR|ENSG00000121579|msi1_unk|FALSE|overlapping (ssRNA)
RNA: GGGAGUUCUACAGUCCGACGAUCCCUUUUUCUUCAGUAAACCCAACAAUAGUCUAACCUUAAAAAUUGAGUUGAUGUCCUUAUAGGUCACUACCCCUAAAUAAACCUGAAGCAGGUGUUUUCUCUUGGACAUACUAAAAAAUACAACAGAGGAUUGAGCAUCA
B21: ENSG00000176244:stop:overlap|stop_codon|ENSG00000176244|stop_codon|NA|stop_codon (ssRNA)
RNA: GGGAGUUCUACAGUCCGACGAUCAAGAUGCGACGAGUGCCUAUAUUUCUAAAGCAAAGGAGCUGAUAGAAAAAUACGGAAUUUAGAAUACAGCAUAUGAGGAAUUUUUCCUUUUGAAGACUUCCAAAUGCUAUCAUGACCUAACAACAGAGGAUUGAGCAUCA
B22: ENSG00000105576:stop:overlap|stop_codon|ENSG00000105576|stop_codon|NA|stop_codon (ssRNA)
RNA: GGGAGUUCUACAGUCCGACGAUCAGUUCUCUGAGCAAUUCCCGCCGCUGCUCAAGGAGAGGCUGGCGGCUUUCUAUGGGGUCUAGGUGAUCAUGGAGACUGCCAGGUUUCUGUCUGCGUCGUCGUCGGAGGGAUUACUGGGGACAACAGAGGAUUGAGCAUCA

This assay addresses MSI1 full-length (mouse, UniProt Q61474 1-362). Put plainly: nsRBNS (natural sequence RNA bind-n-seq); RBNS binding buffer (assumed for nsRBNS): 25 mM Tris pH 7.5, 150 mM KCl, 3 mM MgCl2, 0.01% Triton X-100, 500 ug/ml BSA, 20 U/ml SUPERase-In, 4 C; UNK is unkempt and MSI1 is Musashi-1; names of the RNAs are library labels; protein concentration not given here; high values mean tight binding.
Sequence of UniProt Q61474 (Q61474 whole entry): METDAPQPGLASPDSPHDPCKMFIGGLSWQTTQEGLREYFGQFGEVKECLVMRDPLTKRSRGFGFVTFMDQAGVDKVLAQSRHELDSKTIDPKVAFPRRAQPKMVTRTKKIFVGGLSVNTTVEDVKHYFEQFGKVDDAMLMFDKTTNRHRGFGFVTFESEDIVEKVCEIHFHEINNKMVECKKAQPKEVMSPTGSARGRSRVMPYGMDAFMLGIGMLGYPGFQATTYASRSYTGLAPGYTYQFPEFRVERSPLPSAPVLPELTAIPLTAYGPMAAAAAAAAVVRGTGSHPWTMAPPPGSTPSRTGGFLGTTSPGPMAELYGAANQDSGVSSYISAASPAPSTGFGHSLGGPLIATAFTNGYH
Consider B1, for which the binding signal was 9.05 enrichment R.

Turning to B2, the binding signal is 0.592 enrichment R.

The molecule B3 returned a binding signal of 0.365 enrichment R.

In the case of B4, the binding signal is 21.9 enrichment R.

Take B5: the binding signal amounted to 0.518 enrichment R.

The molecule B6 yielded a binding signal of 0.295 enrichment R.

B7: the binding signal amounted to 0.307 enrichment R.

Take B8: the binding signal came out at 0.589 enrichment R.

As for B9, the binding signal was determined as 0.252 enrichment R.

The molecule B10 showed a binding signal of 0.839 enrichment R.

In turn, B11 came in with a binding signal of 8.29 enrichment R.

Molecule B12 displayed a binding signal of 0.435 enrichment R.

B13: the binding signal was found to be 0.623 enrichment R.

Turning to B14, the binding signal turned out to be 0.499 enrichment R.

Turning to B15, the binding signal is 47.1 enrichment R.

In turn, B16 registered a binding signal of 0.35 enrichment R.

In turn, B17 displayed a binding signal of 0.819 enrichment R.

In the case of B18, the binding signal was 0.52 enrichment R.

B19 displayed a binding signal of 0.508 enrichment R.

Consider B20, for which the binding signal worked out at 4.66 enrichment R.

The molecule B21 showed a binding signal of 0.512 enrichment R.

For B22, the binding signal was 0.344 enrichment R.
